According to PubChem BioAssay AID485294 (National Center for Advancing Translational Sciences (NCATS), 2010):
The campaign covered roughly 370,000 compounds. About 150 (0.041%) were called active. The shares of active, inactive and inconclusive entries below differ from those in the screen. Calls come from the whole dose curve; as a rule, active = well fitted inhibition curve with a large enough effect; inconclusive = small, poorly fitted or top-dose-only effect; inactive = flat fitted curve, though single readings scatter. Potencies of inconclusive entries are left out as doubtful fits.

molecular target: Beta-lactamase (Escherichia coli (strain K12)) (UniProt P00811); test: qHTS Inhibitors of AmpC Beta-Lactamase (assay with detergent); conditions: AmpC hydrolysis of nitrocefin, absorbance 480 nm, 0.01% Triton; activity change, negative = inhibition: at 114 µM (top of the series); note: nearly all actives have a fitted effect of over 25% in size;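 for activity change, negative = inhibition: 0% = no-compound wells and -100% = no-enzyme wells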
Outline: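 AmpC (5.3 nM in the dispensed reagent) in 20 mM phosphate pH 7.0 with 0.01% (detergent screen) or 0.0001% Triton X-100 was preincubated with compounds for 15 min at room temperature. Nitrocefin was then added from an 800 uM solution, and hydrolysis was followed at 480 nm.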
Potency is the fitted concentration of half-maximal effect; tags give direction and shape of the fitted curve.

UniProt P00811, sequence (P00811 whole entry, looked up): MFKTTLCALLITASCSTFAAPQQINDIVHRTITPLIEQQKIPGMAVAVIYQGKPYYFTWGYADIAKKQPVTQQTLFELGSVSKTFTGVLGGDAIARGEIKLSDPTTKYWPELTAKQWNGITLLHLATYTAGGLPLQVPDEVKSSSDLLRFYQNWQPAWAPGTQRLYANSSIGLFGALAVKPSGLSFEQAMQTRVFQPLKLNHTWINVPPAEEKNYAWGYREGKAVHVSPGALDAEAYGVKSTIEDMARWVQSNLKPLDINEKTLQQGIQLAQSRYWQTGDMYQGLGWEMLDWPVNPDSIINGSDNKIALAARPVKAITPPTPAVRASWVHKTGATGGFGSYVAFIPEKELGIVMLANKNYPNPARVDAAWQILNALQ

Row | Structure (SMILES) | activity change, negative = inhibition | Potency
1 | C/C(=C\c1ccccc1)C1Nc2cccc3cccc(c23)N1 | inactive: 5.6% | 
2 | CCOC(=O)CN(C(=O)CSc1nnc2c(n1)[nH]c1c(C)cc(C)cc12)c1ccccc1 |  | inconclusive [inhibitor, full curve, poor fit]
3 | O=C(c1ccoc1)N1CCC2(CC1)Oc1ccc(F)cc1C(=O)C21CC(c2ccccc2)=NO1 (configuration not stated) | inactive: -12.4% | 
4 | O=C(Cc1ccccc1)NNS(=O)(=O)c1ccc([N+](=O)[O-])cc1 |  | inconclusive [inhibitor, partial curve, poor fit]
5 | Cc1c(OCC(=O)NCC2CCC(C(=O)O)CC2)ccc2c(-c3ccccc3)cc(=O)oc12 (configuration not stated) |  | inconclusive [inhibitor, full curve, poor fit]
6 | Cn1c(=O)c2c(nc(Br)n2CCc2ccccc2)n(C)c1=O |  | inconclusive [inhibitor, partial curve, poor fit]
7 | Cc1cccc(C(=O)Oc2cccc3c(O)cccc23)c1 |  | inconclusive [inhibitor, single point]
8 | Cc1ccc(NC(=O)COC(=O)Cn2cnc3c2c(=O)n(C)c(=O)n3C)cc1F |  | inconclusive [inhibitor, full curve, poor fit]
9 | CCn1c(/C=C/c2ccc(F)cc2)nc2ccccc2c1=O |  | inconclusive [inhibitor, full curve, poor fit]
10 | O=[N+]([O-])c1cc(/C=N/NC(=S)Nc2ccccc2Cl)ccc1Cl |  | inconclusive [inhibitor, single point]
11 | O=C(NC1CC1)c1cccc(Nc2ccc(-c3ccc4c(c3)OCCO4)nn2)c1 |  | inconclusive [inhibitor, full curve]
12 | S=C(Nc1cccc2ccccc12)NC1CCCCC1 |  | inconclusive [inhibitor, partial curve, poor fit]
13 | O=C(CCCCCn1c(=S)[nH]c2ccc(Br)cc2c1=O)NCC1CCCO1 (configuration not stated) |  | inconclusive [inhibitor, full curve, poor fit]
14 | CC(C)(C)N=C1C([N+](=O)[O-])=CC=C2C1=NC1(CCCCC1)N2O | inactive: 5.84% | 
15 | COc1ccc(C)cc1NS(=O)(=O)c1cc(C)ccc1C |  | inconclusive [inhibitor, full curve, poor fit]
16 | CC(=O)Nc1ccc(Oc2cnc3ccccc3n2)cc1 | inactive: -0.712% | 
17 | CCCCN(C)CCNS(=O)(=O)c1ccc2c(c1)n(C)c(=O)c(=O)n2C |  | inconclusive [inhibitor, partial curve, poor fit]
18 | Cc1ccc(S(=O)(=O)N[C@@H](CC(C)C)C(=O)N2CCC(C(=O)N[C@@H](Cc3ccccc3)C(=O)O)CC2)cc1 |  | inconclusive [inhibitor, full curve, poor fit]
19 | CCN(CC)CCSc1nnc2c3cc(F)ccc3n(Cc3ccccc3)c2n1 |  | inconclusive [inhibitor, full curve]
20 | N#Cc1ccc(-c2cccnc2)nc1SCc1ccc(Cl)cc1Cl | inactive: -1.06% | 
21 | Cc1nc(S/C(=C/c2ccc(-c3ccc(Cl)cc3)o2)C(=O)O)n[nH]1 |  | inconclusive [inhibitor, single point]
22 | Cc1cc(C)cc(NC(=O)CN(c2cc(C(F)(F)F)ccc2Cl)S(=O)(=O)c2ccccc2)c1 | inactive: 16.5% | 
23 | Cn1c(SCc2ccccc2)nnc1-c1ccco1 |  | inconclusive [inhibitor, single point]

Row | Structure (SMILES) | activity change, negative = inhibition | Potency
24 | Nc1c(NCc2ccccc2F)c(=O)[nH]c(=O)n1Cc1ccccc1 |  | inconclusive [inhibitor, partial curve]
25 | CCOC(=S)N/C(=N\S(=O)(=O)c1ccccc1)c1ccccc1 |  | inconclusive [inhibitor, partial curve]
26 | COc1ccccc1NS(=O)(=O)c1ccc(C(=O)NCc2ccncc2)cc1 | inactive: 1.16% | 
27 | Cc1ccc(S(=O)(=O)N2CCC(=O)N(CCOCc3ccccc3C)CC2)cc1 |  | inconclusive [inhibitor, partial curve]
28 | CCCc1nnc(SCC(=O)Nc2ccc(OCC)cc2)n1N |  | inconclusive [inhibitor, partial curve, poor fit]
29 | CCOC(=O)c1ccccc1NC(=O)CSc1ncc(CO)n1Cc1ccc(C)cc1 | inactive: 22.6% | 
30 | C/C(=N\NC(N)=S)c1cc(-c2ccccc2)c(-c2ccccc2)s1 |  | inconclusive [inhibitor, full curve, poor fit]
31 | CCOC(=O)C1CCN(C(=O)Nc2ccc3oc(C)nc3c2)CC1 |  | inconclusive [inhibitor, full curve, poor fit]
32 | CC(=O)N1CCN(c2ccc(NCc3ccc(F)cc3)cc2)CC1 |  | inconclusive [inhibitor, full curve, poor fit]
33 | CC1(C)OC(c2ccccc2)=C/C(=C/C=C2C(=O)NC(=S)NC2=O)O1 |  | inconclusive [inhibitor, partial curve]
34 | COc1ccc(C2NC(c3ccc(OC)cc3OC)C(C)C(=O)C2C)c(OC)c1 (configuration not stated) | inactive: -11.1% | 
35 | CN(c1ccccc1)S(=O)(=O)c1ccc(NC(=O)c2cccs2)cc1 | inactive: 1.47% | 
36 | COCCn1c(SCC(=O)Nc2cccc(F)c2)nc2c(c1=O)SCC2 | inactive: -4.38% | 
37 | Cc1cc2ncc(C(=O)Nc3ccsc3C(=O)O)c(C)n2n1 | inactive: 2.18% | 
38 | O=C(c1ccccc1)N1CCN(C2C3CC4CC(C3)CC2C4)CC1 (configuration not stated) |  | inconclusive [inhibitor, full curve, poor fit]
39 | O=c1sc(N2CCN(c3ccccc3F)CC2)nc2ccsc12 |  | inconclusive [inhibitor, full curve, poor fit]
40 | O=C(NCCOc1ccc(Cl)cc1)c1ccco1 |  | inconclusive [inhibitor, full curve, poor fit]
41 | COc1cc(/C=N/N=C(\N)c2nonc2N)cc(OC)c1O | inactive: -5.5% | 
42 | COc1cc(CNc2ccc3[nH]c(=O)[nH]c3c2)ccc1OCc1ccccc1Cl |  | inconclusive [inhibitor, full curve, poor fit]
43 | COc1ccc(CCNc2cc(C)nc3c(-c4ccc(Cl)cc4)cnn23)cc1OC |  | inconclusive [inhibitor, partial curve, poor fit]
44 | O=C(NCCc1c[nH]c2ccccc12)c1cncc(Br)c1 | inactive: -3.92% | 
45 | COc1ccc(CN(C)C(=O)COC(=O)c2c(C)nn(-c3ccc(F)cc3)c2Cl)cc1 |  | inconclusive [inhibitor, full curve, poor fit]
46 | O=C1C=C(Nc2ccccc2O)c2ccccc2C1=O |  | inconclusive [inhibitor, full curve, poor fit]

Row | Structure (SMILES) | activity change, negative = inhibition | Potency
47 | COc1ccc(N2CC(C(=O)OCC(=O)NCc3ccccc3)CC2=O)cc1 (configuration not stated) |  | inconclusive [inhibitor, full curve, poor fit]
48 | CCOC(=O)C1=C(O)/C(=C\c2cc(C)n(-c3ccc(F)cc3)c2C)N=C1C |  | inconclusive [inhibitor, single point]
49 | Cc1ccc(C2(C)NC(=O)N(CC(=O)NCCC3=CCCCC3)C2=O)cc1 (configuration not stated) | inactive: 2.85% | 
50 | Cc1ccc(OCC(=O)Nc2nnc(S(=O)(=O)N3CCCCC3)s2)cc1 |  | inconclusive [inhibitor, full curve, poor fit]
51 | CCN(CC(=O)Nc1c(F)cccc1F)C(=O)c1ccc(C(=O)c2ccccc2)cc1 |  | inconclusive [inhibitor, partial curve]
52 | CCOC(=O)C1NC(=O)CC1c1ccccc1 (configuration not stated) |  | inconclusive [inhibitor, full curve]
53 | Cc1ccc(Cl)cc1N(CC(=O)NC1CCCCC1)S(C)(=O)=O |  | inconclusive [inhibitor, full curve, poor fit]
54 | COCc1nc2cccnc2n1C1CCN(S(=O)(=O)N(C)C)CC1 | inactive: -0.937% | 
55 | CCn1c(SCc2ccccc2Cl)nc2ccccc21 |  | inconclusive [inhibitor, full curve]
56 | C[C@@]12C(=O)OC(=O)[C@]1(C)C1CCC2O1 |  | inconclusive [inhibitor, full curve, poor fit]
57 | O=C(N/N=C/c1ccccc1[N+](=O)[O-])c1cccs1 | inactive: -0.722% | 
58 | Cc1cc(C)c(C(=O)COC(=O)c2ccc(NC(=O)CC#N)cc2)cc1C | inactive: 10.6% | 
59 | Cc1cc(C(F)(F)Cl)n2ncc(-c3ccccn3)c2n1 |  | inconclusive [inhibitor, single point]
60 | COC(=O)[C@@H]1C[C@H]1[C@@H](NS(=O)(=O)c1ccccc1)c1ccccc1 |  | inconclusive [inhibitor, partial curve]
61 | COc1ccc2oc(=O)c(C(=O)N3CCc4ccccc43)cc2c1 |  | inconclusive [inhibitor, full curve, poor fit]
62 | Cc1cccc(N2CC(c3nc4ccccc4n3C)CC2=O)c1C (configuration not stated) |  | inconclusive [inhibitor, full curve]
63 | Cc1ccc(NC(=O)/C=C\C(=O)NCC(=O)O)cc1C |  | inconclusive [inhibitor, partial curve, poor fit]
64 | COc1cccc(NC(=O)COC(=O)CCn2c(C)csc2=O)c1 |  | inconclusive [inhibitor, full curve, poor fit]
65 | COc1ccc(N(CC(=O)NCCSCc2ccco2)S(=O)(=O)c2ccccc2)cc1OC | inactive: -6.5% | 
66 | CCOc1ccccc1NC(=O)CSc1nnc(-c2cnccn2)n1CC |  | inconclusive [inhibitor, full curve, poor fit]
67 | CCOC(=O)c1c(NC(=O)/C=C/c2ccc(C(C)C)cc2)sc2c1CCC2 | inactive: -1.2% | 
